The results in this text go back to PubChem BioAssay (NCI).

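Where inhibition never reached the appropriate level, the endpoint shown equals the highest concentration tested. Otherwise, values were interpolated linearly from a five-concentration, 48-hour dose response in 96-well plates. GI50 marks 50% less growth. At the TGI there is no net growth.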

For this test, the system named is NCI-H322M lung. Kind of test: NCI tumour cell line growth inhibition, 48 h.

Turning to `COc1ccc(-c2ccnc(SCc3cc4cc(Cl)ccc4[nH]c3=O)n2)cc1`, the GI50 was 18.8 µM and the TGI is more than 100 µM.

`Cc1ccc(/C(CSc2nnc(-c3c[nH]c4ccccc34)n2-c2ccccc2)=N/O)cc1`: the GI50 was 3.54 µM and the TGI came out at 19.8 µM.

In the case of `CC(C)N=C([Se])NC(=O)c1ccccc1`, the GI50 was 2.11 µM and the TGI is 6.32 µM.
